For five molecules, binding results are on record in publication PMC4265154, “A reversible Renilla luciferase protein complementation assay for rapid identification of protein–protein interactions reveals the existence of an interaction network involved in xyloglucan biosynthesis in the plant Golgi apparatus” (Journal of Experimental Botany, 2014).

These are yes or no findings as the source states them, for the method shown. In cells and extracts the contact can be indirect. Some results given as binding are weak or reduced against the parent protein; the word gives no strength. Where a sequence is shown, tags or fusion partners need not be part of it.

Common to all, as to assay: split reporter; Rluc-PCA: proteins with C-terminal hRluc[F1]-HA and hRluc[F2]-FLAG co-expressed with p19 in N. benthamiana leaves for 72 h (Agrobacterium OD600 0.2 each, p19 0.05); pooled leaf discs macerated in 0.5 M NaCl, 0.1 M potassium phosphate pH 7.4, 1 mM EDTA, 0.02% BSA, protease inhibitors; 10 uM coelenterazine-h, luminescence 30 s; compared with p19 alone
The target of experiment [1] is T1, XXT5 fused to hRluc fragment [F1] or [F2] (Arabidopsis thaliana) (UniProt Q9CA75).
T1 sequence: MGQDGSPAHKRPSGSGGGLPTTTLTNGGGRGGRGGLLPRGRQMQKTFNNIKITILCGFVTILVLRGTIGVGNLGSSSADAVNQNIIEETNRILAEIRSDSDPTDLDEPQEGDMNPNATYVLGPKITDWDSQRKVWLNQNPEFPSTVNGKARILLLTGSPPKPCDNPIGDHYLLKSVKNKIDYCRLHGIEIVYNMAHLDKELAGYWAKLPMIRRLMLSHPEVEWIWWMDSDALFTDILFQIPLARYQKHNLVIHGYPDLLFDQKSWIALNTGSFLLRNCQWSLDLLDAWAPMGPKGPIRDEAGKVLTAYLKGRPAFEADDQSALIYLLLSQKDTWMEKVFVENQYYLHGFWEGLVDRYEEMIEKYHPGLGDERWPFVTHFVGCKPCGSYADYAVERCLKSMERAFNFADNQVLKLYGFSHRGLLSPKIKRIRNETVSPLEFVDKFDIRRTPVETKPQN

Experiment [2] addresses T2, IRX10-L fused to hRluc fragment [F1] or [F2] (Arabidopsis thaliana) (UniProt Q940Q8).
T2 sequence: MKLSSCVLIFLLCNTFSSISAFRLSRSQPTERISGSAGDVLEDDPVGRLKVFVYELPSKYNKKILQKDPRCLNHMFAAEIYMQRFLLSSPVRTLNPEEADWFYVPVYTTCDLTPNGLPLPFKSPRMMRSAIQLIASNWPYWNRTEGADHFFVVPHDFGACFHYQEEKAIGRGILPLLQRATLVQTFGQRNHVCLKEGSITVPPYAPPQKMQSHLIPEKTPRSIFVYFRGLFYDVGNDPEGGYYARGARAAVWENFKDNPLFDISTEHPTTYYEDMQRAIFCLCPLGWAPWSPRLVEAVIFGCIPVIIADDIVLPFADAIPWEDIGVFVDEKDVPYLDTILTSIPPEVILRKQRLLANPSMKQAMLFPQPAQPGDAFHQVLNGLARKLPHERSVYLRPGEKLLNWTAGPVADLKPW

Experiment [3] deals with T3, IRX14 fused to hRluc fragment [F1] or [F2] (Arabidopsis thaliana) (UniProt Q8L707).
T3 sequence: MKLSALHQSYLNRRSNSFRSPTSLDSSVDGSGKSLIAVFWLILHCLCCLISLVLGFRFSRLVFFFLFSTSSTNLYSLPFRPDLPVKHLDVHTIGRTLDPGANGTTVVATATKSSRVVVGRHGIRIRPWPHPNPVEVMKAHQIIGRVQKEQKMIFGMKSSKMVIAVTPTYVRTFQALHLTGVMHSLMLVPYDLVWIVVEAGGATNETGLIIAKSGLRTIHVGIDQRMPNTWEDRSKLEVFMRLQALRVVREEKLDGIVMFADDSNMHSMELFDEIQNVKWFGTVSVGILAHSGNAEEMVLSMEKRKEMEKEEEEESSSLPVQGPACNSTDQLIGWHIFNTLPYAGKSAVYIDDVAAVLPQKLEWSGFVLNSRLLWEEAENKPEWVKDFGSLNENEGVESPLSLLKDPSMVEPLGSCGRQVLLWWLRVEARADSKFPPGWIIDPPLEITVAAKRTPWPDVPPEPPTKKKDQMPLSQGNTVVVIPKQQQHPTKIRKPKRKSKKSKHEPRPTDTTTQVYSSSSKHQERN

The target in experiment [4] is T4, FUCO…1 (FUT1) fused to hRluc fragment [F1] or [F2] (Arabidopsis thaliana) (UniProt Q9SWH5).
T4 sequence: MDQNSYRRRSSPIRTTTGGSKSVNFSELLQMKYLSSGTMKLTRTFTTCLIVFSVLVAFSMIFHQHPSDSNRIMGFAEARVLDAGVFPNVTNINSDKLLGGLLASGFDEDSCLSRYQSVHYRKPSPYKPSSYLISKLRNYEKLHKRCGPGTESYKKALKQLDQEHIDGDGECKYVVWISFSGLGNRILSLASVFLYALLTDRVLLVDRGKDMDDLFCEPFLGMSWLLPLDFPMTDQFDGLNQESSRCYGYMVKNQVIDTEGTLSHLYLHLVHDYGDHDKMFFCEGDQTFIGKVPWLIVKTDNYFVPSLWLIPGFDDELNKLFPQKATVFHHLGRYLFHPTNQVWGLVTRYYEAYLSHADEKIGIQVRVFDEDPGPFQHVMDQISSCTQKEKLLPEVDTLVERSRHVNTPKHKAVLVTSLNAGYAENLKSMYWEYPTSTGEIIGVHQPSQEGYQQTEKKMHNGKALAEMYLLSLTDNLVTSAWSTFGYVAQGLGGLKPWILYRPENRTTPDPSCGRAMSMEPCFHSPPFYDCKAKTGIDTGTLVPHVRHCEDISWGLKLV

The target in experiment [5] is T5, IRREGULAR XYLEM9 (IRX9) fused to hRluc fragment [F1] or [F2] (Arabidopsis thaliana) (UniProt Q9ZQC6).
T5 sequence: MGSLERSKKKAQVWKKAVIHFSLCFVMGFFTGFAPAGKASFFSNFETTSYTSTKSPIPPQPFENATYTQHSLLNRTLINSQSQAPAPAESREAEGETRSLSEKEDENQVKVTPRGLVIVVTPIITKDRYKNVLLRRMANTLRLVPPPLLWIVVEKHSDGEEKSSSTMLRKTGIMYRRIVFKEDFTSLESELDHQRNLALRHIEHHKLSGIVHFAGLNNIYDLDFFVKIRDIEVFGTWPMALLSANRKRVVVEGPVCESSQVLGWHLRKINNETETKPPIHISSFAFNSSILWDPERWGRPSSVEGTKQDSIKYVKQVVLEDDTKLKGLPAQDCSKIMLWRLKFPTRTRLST

B1: XXT5 fused to hRluc fragment [F1] or [F2] (protein, UniProt Q9CA75 1-457)
chain: T1 sequence
For the molecule B1, in experiment [1], the binding result is “no binding”.

B2: IRX10 fused to hRluc fragment [F1] or [F2] (protein, UniProt Q9FZJ1 1-412)
chain: MKIHSCLSAILLFLFFSASSAKQNVRTERISGSAGDVLEDDPVGKLKVYVYELPSKYNKKLLQKDPRCLTHMFAAEIFMHRFLLSSPVRTRNPDEADWFYTPIYPTCDLTPTGLPLPFKSPRMMRSSIQLISSNWPYWNRTEGADHFFVVPHDFGACFHYQEEKAIERGILPLLQRATLVQTFGQRNHVCLDEGSITIPPFAPPQKMQAHFIPPDIPRSIFVYFRGLFYDVNNDPEGGYYARGARAAVWENFKNNPLFDISTDHPTTYYEDMQRAIFCLCPLGWAPWSPRLVEAVVFGCIPVIIADDIVLPFADAIPWEEIGVFVAEKDVPELDTILTSIPTEVILRKQRLLANPSMKRAMLFPQPAQPGDAFHQILNGLARKLPHDKSIYLKTGEKALNWTAGPVADLKPW
As for B2, the binding result in experiment [2] and in experiment [3] was “no binding” in each case.

B3: MURUS3/KATAMARI1 (MUR3) fused to hRluc fragment [F1] or [F2] (natural protein, Arabidopsis thaliana, UniProt Q7XJ98 1-619, looked up)
chain: MFPRVSMRRRSAEVSPTEPMEKGNGKNQTNRICLLVALSLFFWALLLYFHFVVLGTSNIDKQLQLQPSYAQSQPSSVSLRVDKFPIEPHAAPSKPPPKEPLVTIDKPILPPAPVANSSSTFKPPRIVESGKKQEFSFIRALKTVDNKSDPCGGKYIYVHNLPSKFNEDMLRDCKKLSLWTNMCKFTTNAGLGPPLENVEGVFSDEGWYATNQFAVDVIFSNRMKQYKCLTNDSSLAAAIFVPFYAGFDIARYLWGYNISRRDAASLELVDWLMKRPEWDIMRGKDHFLVAGRITWDFRRLSEEETDWGNKLLFLPAAKNMSMLVVESSPWNANDFGIPYPTYFHPAKDSEVFEWQDRMRNLERKWLFSFAGAPRPDNPKSIRGQIIDQCRNSNVGKLLECDFGESKCHAPSSIMQMFQSSLFCLQPQGDSYTRRSAFDSMLAGCIPVFFHPGSAYTQYTWHLPKNYTTYSVFIPEDDVRKRNISIEERLLQIPAKQVKIMRENVINLIPRLIYADPRSELETQKDAFDVSVQAVIDKVTRLRKNMIEGRTEYDYFVEENSWKYALLEEGQREAGGHVWDPFFSKPKPGEDGSSDGNGGTTISADAAKNSWKSEQRDKTQ
notes: Made in two forms, one with [F1]-HA and one with [F2]-FLAG; a chain carries one of the two; also called MUR3-[F1]; MUR3-[F2]; source: N. benthamiana leaves, transient expression (A. tumefaciens GV3101, with p19), in crude leaf macerate; not shown: hRluc[F1]; (Renilla luciferase residues 1-110) with HA, C-terminal, kept; hRluc[F2]; (Renilla luciferase residues 111-310) with FLAG, C-terminal, kept
Turning to B3, in experiment [4], the binding result is listed as “binds”.

B4: IRX10-L fused to hRluc fragment [F1] or [F2] (protein, UniProt Q940Q8 1-415)
chain: T2 sequence
Turning to B4, the binding entry in experiment [3] is reported as “no binding”.

B5: ARABINAN DEFICIENT1 (ARAD1) fused to hRluc fragment [F1] or [F2] (natural protein, Arabidopsis thaliana, UniProt Q6DBG8 1-447, looked up)
chain: MARKSSLLKRAAIAVVSVIAIYVILNASVSRSLPSSSDLPRQLIREDDDDEGRAPIQPRVRVYMYNLPKRFTYGLIEQHSIARGGIKKPVGDVTTLKYPGHQHMHEWYLFSDLNQPEVDRSGSPIVRVSDPADADLFYVPVFSSLSLIVNAGRPVEAGSGYSDEKMQEGLVEWLEGQEWWRRNAGRDHVIPAGDPNALYRILDRVKNAVLLVSDFGRLRPDQGSFVKDVVIPYSHRVNLFNGEIGVEDRNTLLFFMGNRYRKDGGKVRDLLFQVLEKEDDVTIKHGTQSRENRRAATKGMHTSKFCLNPAGDTPSACRLFDSIVSLCVPLIVSDSIELPFEDVIDYRKFSIFVEANAALQPGFLVQMLRKIKTKKILEYQREMKSVRRYFDYDNPNGAVKEIWRQVSHKLPLIKLMSNRDRRLVLRNLTEPNCSCLCTNQTGLITSI
notes: Made in two forms, one with [F1]-HA and one with [F2]-FLAG; a chain carries one of the two; also called ARAD1-[F1]; ARAD1-[F2]; source: N. benthamiana leaves, transient expression (A. tumefaciens GV3101, with p19), in crude leaf macerate; not shown: hRluc[F1]; (Renilla luciferase residues 1-110) with HA, C-terminal, kept; hRluc[F2]; (Renilla luciferase residues 111-310) with FLAG, C-terminal, kept
Take B5: in experiment [5], the binding entry is “no binding”.
